# Reference: the supplement of paper PMC8728848
# Some of the results follow.
# B1: Galatrox (Botrops atrox), P0DM53 (protein)
# chain: NNCPQDWLPMNGLCYKIFDELKAWKDAEMFCRKYKPGCHLASIILYGESPEWAEGHSEVWLGLWDKKKDFSWEWTDR
# Tests used:
# Assay in all cases: glycan array binding signal (z-score within array); higher = stronger binding
# Settings in all cases: glycan notation: IUPAC condensed, linker removed
# [1] = biological target: Gal(b1-3)[Neu5Ac(a2-6)]GalNAc
# How it was run: (§1)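 From the Consortium for Functional Glycomics database, 3228 arrays were curated, keeping only those whose protein sequence was available. Binding is given as a within-array Z-score averaged across arrays sharing a protein sequence and across linkers. Negative Z-scores can be read as non-binding.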
# [2] = biological target: Gal(b1-3)[Neu5Ac(a2-6)]GlcNAc(b1-6)Gal(b1-4)Glc
# How it was run: as §1
# [3] = biological target: Gal(b1-3)[Neu5Ac(b2-6)]GalNAc
# How it was run: as §1
# [4] = biological target: Gal(b1-4)GalNAc(a1-3)[Fuc(a1-2)]Gal(b1-4)GlcNAc
# How it was run: as §1
# [5] = biological target: Gal(b1-4)GalNAc(b1-3)[Fuc(a1-2)]Gal(b1-4)GlcNAc
# How it was run: as §1
# Gal(b1-4)Glc = biological target: Gal(b1-4)Glc
# How it was run: as §1
# Gal(b1-4)Glc6S = biological target: Gal(b1-4)Glc6S
# How it was run: as §1
# Gal(b1-4)GlcNAc = biological target: Gal(b1-4)GlcNAc
# How it was run: as §1
# [6] = biological target: Gal(b1-4)GlcNAc(a1-6)Gal(b1-4)GlcNAc
# How it was run: as §1
# [7] = biological target: Gal(b1-4)GlcNAc(b1-2)Man(a1-3)Man(b1-4)GlcNAc(b1-4)GlcNAc
# How it was run: as §1
# [8] = biological target: Gal(b1-4)GlcNAc(b1-2)Man(a1-3)[Gal(b1-4)GlcNAc(b1-2)Man(a1-6)]Man(b1-4)GlcNAc(b1-4)GlcNAc
# How it was run: as §1
# [9] = biological target: Gal(b1-4)GlcNAc(b1-2)Man(a1-3)[Gal(b1-4)GlcNAc(b1-2)Man(a1-6)]Man(b1-4)GlcNAc(b1-4)[Fuc(a1-6)]GlcNAc
# How it was run: as §1
# [10] = biological target: Gal(b1-4)GlcNAc(b1-2)Man(a1-3)[GlcNAc(b1-2)Man(a1-6)]Man(b1-4)GlcNAc(b1-4)GlcNAc
# How it was run: as §1
# [11] = biological target: Gal(b1-4)GlcNAc(b1-2)Man(a1-3)[Man(a1-6)]Man(b1-4)GlcNAc(b1-4)GlcNAc
# How it was run: as §1
# [12] = biological target: Gal(b1-4)GlcNAc(b1-2)Man(a1-6)Man(b1-4)GlcNAc(b1-4)GlcNAc
# How it was run: as §1
# [13] = biological target: Gal(b1-4)GlcNAc(b1-2)Man(a1-6)[GlcNAc(b1-2)Man(a1-3)]Man(b1-4)GlcNAc(b1-4)GlcNAc
# How it was run: as §1
# [14] = biological target: Gal(b1-4)GlcNAc(b1-2)Man(a1-6)[Man(a1-3)]Man(b1-4)GlcNAc(b1-4)GlcNAc
# How it was run: as §1
# [15] = biological target: Gal(b1-4)GlcNAc(b1-2)[Gal(b1-4)GlcNAc(b1-4)]Man(a1-3)[Gal(b1-4)GlcNAc(b1-2)Man(a1-6)]Man(b1-4)GlcNAc(b1-4)GlcNAc
# How it was run: as §1
# [16] = biological target: Gal(b1-4)GlcNAc(b1-2)[Gal(b1-4)GlcNAc(b1-4)]Man(a1-3)[Gal(b1-4)GlcNAc(b1-2)[Gal(b1-4)GlcNAc(b1-6)]Man(a1-6)]Man(b1-4)GlcNAc(b1-4)GlcNAc
# How it was run: as §1
# [17] = biological target: Gal(b1-4)GlcNAc(b1-3)Gal(b1-3)GlcNAc
# How it was run: as §1
# [18] = biological target: Gal(b1-4)GlcNAc(b1-3)Gal(b1-4)Glc
# How it was run: as §1
# [19] = biological target: Gal(b1-4)GlcNAc(b1-3)Gal(b1-4)GlcNAc
# How it was run: as §1
# [20] = biological target: Gal(b1-4)GlcNAc(b1-3)Gal(b1-4)GlcNAc(b1-3)Gal(b1-4)GlcNAc
# How it was run: as §1
# [21] = biological target: Gal(b1-4)GlcNAc(b1-3)Gal(b1-4)[Fuc(a1-3)]GlcNAc(b1-3)Gal(b1-4)[Fuc(a1-3)]GlcNAc
# How it was run: as §1
# [22] = biological target: Gal(b1-4)GlcNAc(b1-3)GalNAc
# How it was run: as §1
# [23] = biological target: Gal(b1-4)GlcNAc(b1-3)[Gal(b1-4)GlcNAc(b1-6)]Gal(b1-4)GlcNAc
# How it was run: as §1
# [24] = biological target: Gal(b1-4)GlcNAc(b1-3)[Gal(b1-4)GlcNAc(b1-6)]GalNAc
# How it was run: as §1
# [25] = biological target: Gal(b1-4)GlcNAc(b1-3)[GlcNAc(b1-6)]Gal(b1-4)GlcNAc
# How it was run: as §1
# [26] = biological target: Gal(b1-4)GlcNAc(b1-6)Gal(b1-4)GlcNAc
# How it was run: as §1
# [27] = biological target: Gal(b1-4)GlcNAc(b1-6)GalNAc
# How it was run: as §1
# [28] = biological target: Gal(b1-4)GlcNAc(b1-6)[Gal(b1-3)]GalNAc
# How it was run: as §1
# Gal3S(b1-3)GalNAc = biological target: Gal3S(b1-3)GalNAc
# How it was run: as §1
# Gal3S(b1-3)GlcNAc = biological target: Gal3S(b1-3)GlcNAc
# How it was run: as §1
# [29] = biological target: Gal3S(b1-3)[Fuc(a1-4)]GlcNAc
# How it was run: as §1
# Gal3S(b1-4)Glc = biological target: Gal3S(b1-4)Glc
# How it was run: as §1
# Gal3S(b1-4)Glc6S = biological target: Gal3S(b1-4)Glc6S
# How it was run: as §1
# Gal3S(b1-4)GlcNAc = biological target: Gal3S(b1-4)GlcNAc
# How it was run: as §1
# Gal3S(b1-4)GlcNAc6S = biological target: Gal3S(b1-4)GlcNAc6S
# How it was run: as §1
binder,measurement,setting,value
B1,glycan array binding signal (z-score),[1],0.985
same,glycan array binding signal (z-score),[2],-0.326
same,glycan array binding signal (z-score),[3],-0.094
same,glycan array binding signal (z-score),[4],0.067
same,glycan array binding signal (z-score),[5],-0.37
same,glycan array binding signal (z-score),Gal(b1-4)Glc,0.951
same,glycan array binding signal (z-score),Gal(b1-4)Glc6S,-0.022
same,glycan array binding signal (z-score),Gal(b1-4)GlcNAc,1.3
same,glycan array binding signal (z-score),[6],3.28
same,glycan array binding signal (z-score),[7],0.267
same,glycan array binding signal (z-score),[8],1.27
same,glycan array binding signal (z-score),[9],1.04
same,glycan array binding signal (z-score),[10],0.697
same,glycan array binding signal (z-score),[11],0.001
same,glycan array binding signal (z-score),[12],2.53
same,glycan array binding signal (z-score),[13],1.11
same,glycan array binding signal (z-score),[14],1.15
same,glycan array binding signal (z-score),[15],3.31
same,glycan array binding signal (z-score),[16],3.13
same,glycan array binding signal (z-score),[17],1.3
same,glycan array binding signal (z-score),[18],2.92
same,glycan array binding signal (z-score),[19],3.16
same,glycan array binding signal (z-score),[20],3.28
same,glycan array binding signal (z-score),[21],3.31
same,glycan array binding signal (z-score),[22],1.31
same,glycan array binding signal (z-score),[23],4.18
same,glycan array binding signal (z-score),[24],3.1
same,glycan array binding signal (z-score),[25],3.11
same,glycan array binding signal (z-score),[26],2.92
same,glycan array binding signal (z-score),[27],2.44
same,glycan array binding signal (z-score),[28],1.77
same,glycan array binding signal (z-score),Gal3S(b1-3)GalNAc,-0.361
same,glycan array binding signal (z-score),Gal3S(b1-3)GlcNAc,-0.363
same,glycan array binding signal (z-score),[29],-0.356
same,glycan array binding signal (z-score),Gal3S(b1-4)Glc,-0.363
same,glycan array binding signal (z-score),Gal3S(b1-4)Glc6S,-0.351
same,glycan array binding signal (z-score),Gal3S(b1-4)GlcNAc,-0.368
same,glycan array binding signal (z-score),Gal3S(b1-4)GlcNAc6S,-0.353
